# Hit rate of the full screen: of about 110,000 compounds, about 230 (0.21%) showed an effect of 50% or more. This is one part of the list.
# Biological target: DPAP1 (Plasmodium falciparum, UniProt Q8IIJ9)
# Experiment: primary screen, percent inhibition; read by cleavage of a fluorogenic dipeptide substrate; higher = more effect of the substance
# Design: species or system P. falciparum D10 trophozoite lysates; single well
# 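Further: 30 min substrate incubation versus DMSO and 10 µM JCP410 controls.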
# DPAP1, sequence (Q8IIJ9 whole entry, looked up): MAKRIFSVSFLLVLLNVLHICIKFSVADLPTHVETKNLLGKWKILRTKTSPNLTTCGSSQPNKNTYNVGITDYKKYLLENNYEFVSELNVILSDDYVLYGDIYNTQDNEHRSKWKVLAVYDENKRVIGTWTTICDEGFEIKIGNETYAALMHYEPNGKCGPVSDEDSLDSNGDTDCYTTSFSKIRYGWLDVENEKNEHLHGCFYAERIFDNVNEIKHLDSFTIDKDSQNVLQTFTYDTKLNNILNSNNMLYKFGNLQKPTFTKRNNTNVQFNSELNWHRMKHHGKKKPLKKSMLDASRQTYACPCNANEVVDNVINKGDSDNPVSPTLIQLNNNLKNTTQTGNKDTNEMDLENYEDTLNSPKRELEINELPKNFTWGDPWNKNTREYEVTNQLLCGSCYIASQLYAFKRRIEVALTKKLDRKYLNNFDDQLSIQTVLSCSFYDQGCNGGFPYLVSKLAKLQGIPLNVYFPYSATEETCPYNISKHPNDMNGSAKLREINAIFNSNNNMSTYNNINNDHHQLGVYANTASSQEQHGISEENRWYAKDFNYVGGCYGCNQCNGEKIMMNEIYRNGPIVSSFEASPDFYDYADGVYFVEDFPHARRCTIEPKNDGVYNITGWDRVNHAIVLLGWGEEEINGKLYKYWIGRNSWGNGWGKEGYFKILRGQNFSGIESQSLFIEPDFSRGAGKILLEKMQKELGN
row,Structure (SMILES),% Inhibition @ 10 uM
1,CCOC(=O)N(Cc1ccc(Cl)cc1)C(=O)CC#N,0.408%
2,Cc1ccc(C(=O)NCc2cn3c(C)csc3n2)cc1,-2.45%
3,Cc1cc(-c2ccccc2)c2c3c(cn2n1)c(=O)n(C)c(=O)n3C,-5.63%
4,CCOC(=O)c1c(-c2ccc(Cl)cc2)csc1N,10.9%
5,CCOC(=O)c1c(-c2ccccc2)csc1NC(=O)c1cc(C)on1,4.12%
6,CC(NC(=O)c1nn(C)c2c1CS(=O)(=O)c1ccccc1-2)c1ccccc1 (stereo not drawn),1.51%
7,CCOc1ccc(CCNC(=O)Cn2ccc3cc(S(=O)(=O)N4CCCC4)ccc32)cc1,-8.25%
8,CCOc1ccc(C2C(C(=O)c3ccc(C)cc3)=C(O)C(=O)N2CCCC(=O)O)cc1 (stereo not drawn),-3.75%
9,NC(=S)N/N=C1/CCCCC1c1ccccn1 (stereo not drawn),7.75%
10,CCCCNC(=O)C(CC)n1ccc2cc(S(=O)(=O)N3CCCCC3)ccc21 (stereo not drawn),6.58%
11,CC(C)(C)C1=Nn2c(nnc2-c2ccccc2)SC1,1.74%
12,CCN(CCN(C)C)Cc1ccc(Cl)cc1Cl,-5.94%
13,Cc1cccc(C(=O)Nc2cc(C)ccn2)c1,-5.34%
14,COc1ccc(-c2noc(-c3ccc(OC)cc3)n2)cc1,1.72%
15,O=P1(O)c2ccccc2Nc2ccccc21,0.878%
16,Cn1c2ccccc2c2nn3c(SCc4ccccc4)nnc3nc21,-1.18%
17,O=C(Cn1cc(SCc2ccccc2)c2ccccc21)N1CCOCC1,-4.93%
18,Cc1ccccc1C(=O)Nc1sc2c(c1C(=O)O)CCCC2,0.0792%
19,CC(C)CNS(=O)(=O)c1ccc(CCC(=O)Nc2ccccc2F)cc1,-4.68%
20,CC(=O)Nc1ccc(NC(=O)CN(c2ccc(C)cc2)S(=O)(=O)c2ccc(F)cc2)cc1,0.245%
21,O=C(Cn1c(=O)c2cccn2c2cccnc21)NCCCN1CCCC1=O,-4.16%
22,Cc1ccc(CNC(=O)c2cc(O)nc3ccc(S(=O)(=O)N4CCOCC4)cc23)cc1,-3.36%
23,CCOc1ccc(C2CC(c3cccc(OC)c3OC)n3ncnc3N2)cc1Cl (stereo not drawn),-3.6%
24,CCc1ccc(-c2cc3c(=O)n(CC(=O)NCCCOC(C)C)nc(C)n3n2)cc1,-1.08%
25,CCOc1ccc(C2c3c(oc4ccccc4c3=O)C(=O)N2c2ccccn2)cc1OCC (stereo not drawn),0.331%
26,COc1ccccc1-c1c(C)nn2c(SCC(=O)NC3CCCC(C)C3C)cc(C)nc12 (stereo not drawn),0.0198%

row,Structure (SMILES),% Inhibition @ 10 uM
1,CCCc1nc(-c2ccc(-c3cccc(OC)c3)nc2OC)no1,2.1%
2,CCCOc1ccccc1C1CC(=O)NC(C)=C1C(=O)OCc1ccc(C)cc1 (stereo not drawn),-0.396%
3,CC(C)(O)C#Cc1ccc(C(=O)N2CCN(c3ccccc3)CC2)cc1,-7.1%
4,O=S(=O)(NC1CCCc2ccccc21)c1ccc(S(=O)(=O)N2CCCCCC2)cc1 (stereo not drawn),5.43%
5,COc1cc(C2N(C(C)=O)CCN2S(=O)(=O)c2ccc(C)cc2)ccc1O (stereo not drawn),-2.87%
6,OCCN1CCN(Cc2ccc(F)cc2F)CC1,3.65%
7,Cc1c(C(=O)N2CCOCC2)oc2c1-c1nn(CC(=O)NCc3ccco3)cc1CC2,0.335%
8,Cc1ccccc1C(=O)Nc1cc2c(ccc3ccccc32)oc1=O,4.35%
9,CC1=CCC2(CO)COC(C(C)(C)CO)C1C2 (stereo not drawn),-1.86%
10,O=S1(=O)C=CC(Nc2ccc(Cl)cc2)C1 (stereo not drawn),-2.62%
11,O=C(c1ccc(CNS(=O)(=O)c2cccc(C(F)(F)F)c2)cc1)N1CCOCC1,2.01%
12,CCCOc1ccc(Cc2nn[nH]n2)cc1,4.52%
13,CCCC1(OC(=O)Nc2ccc(Cl)cc2)CCCCC1,-0.712%
14,CS(=O)(=O)/C=C/[C@H](CCCCNC(=O)OCc1ccccc1)NC(=O)[C@H](CCC(=O)Nc1ccccc1)NC(=O)c1ccc(Br)cc1,15.9%
15,CC(=O)c1ccc(N2CCN(Cc3ccc(Br)s3)CC2)cc1,5.56%
16,COc1cccc(C[C@H](NC(=O)OC(C)(C)C)C(=O)NCC#N)c1,7.39%
17,CCn1c(C(=O)O)c(CNC2CCC(C)CC2)c2ccc(C)cc21 (stereo not drawn),-5.37%
18,Cc1ccc(CNc2sc(S(C)(=O)=O)nc2S(=O)(=O)c2ccc(Cl)cc2)cc1,-4.04%
19,CC1(C)C2C(c3ccc([N+](=O)[O-])cc3)=NOC21C (stereo not drawn),-4.35%
20,OCCN1CCN(C2Cc3cc(Cl)ccc3Sc3c(F)cccc32)CC1 (stereo not drawn),-7.63%
21,Cc1[nH]c2ccccc2c1SCCNC(=O)c1ccc2c(c1)OCO2,-5.67%
22,CCOc1ccc2nc(NC3=NCN(CCc4ccccc4)CN3)nc(C)c2c1,-3.5%
23,CC(CNC(=O)c1cc2sc(Cl)cc2n1C)c1ccccc1 (stereo not drawn),-3.08%
24,COCCn1c(C)cc(C(=O)CSc2ccc3ccccc3n2)c1C,-3.85%
25,COc1ccc(CNCCC2(Cc3ccccc3)CC(C)N(C)CC2C)cc1 (stereo not drawn),1.24%
26,O=C(NC1CCC(NC(=O)c2cccc(Cl)c2)CC1)c1cccc(Cl)c1 (stereo not drawn),-0.95%

row,Structure (SMILES),% Inhibition @ 10 uM
1,Cc1c(-c2nsc(NC(=O)c3ccc(Cl)cc3)n2)nnn1-c1ccc(F)c(Cl)c1,-2.41%
2,CCCSc1nc(=O)c2c(n1C)NC(=O)CC2c1cc(Br)ccc1OC (stereo not drawn),2.25%
3,CCCCOc1ccc(S(=O)(=O)n2cnc(C)c2)cc1,-2.87%
4,Cc1oc(-c2cccs2)nc1CS(=O)CC(=O)NCCCN1CC(C)CC(C)C1 (stereo not drawn),-3.7%
5,COCc1nc2ccccc2n1CCc1ccccc1,-0.551%
6,CN(C)c1ccc(NS(=O)(=O)c2ccc(Cl)cc2)cc1,-0.318%
7,Cc1ccc(C2CCN(C(=S)NC(C)(C)C)C2)cc1 (stereo not drawn),-2.72%
8,COc1nc(-c2ccccc2)nc2ccccc12,-3.18%
9,Cc1ccccc1NC(=O)CC1SC(Nc2ccccc2)=NC1=O (stereo not drawn),-1.89%
10,CCCC(=O)N1CCN(c2ccc(NC(=O)Cc3ccccc3)cc2)CC1,-6.02%
11,CC1CCN(CCCCOc2ccccc2Br)CC1,-2.98%
12,Cc1ccc2c(c1)c1c3n2CCN(CCC#N)C3CCC1 (stereo not drawn),4.9%
13,CO/C(O)=C1\C(C)=NC2=C(C(=O)CC(C)(C)C2)C1c1cc(CN2CCOCC2)cs1 (stereo not drawn),2.72%
14,COc1cc(CC2C(=O)NC(=O)N(Cc3ccccc3)C2=O)ccc1O (stereo not drawn),-2.5%
15,O=C(Nc1ccc(O)cc1)C1CCCCC1,-4.63%
16,COc1cc(CN2CCN(Cc3ccccc3C(F)(F)F)CC2)cc(OC)c1OC,6.35%
17,CCC(C(=O)NC1CCCCC1)n1c(C(=O)OC)cc2sc(Cl)cc21 (stereo not drawn),-6.42%
18,COc1ccc(-c2cc(C(=O)N3CCOCC3)no2)cc1OC,9.13%
19,COCc1cc(C)nc2sc3c(c12)NC(c1ccc(NC(C)=O)cc1)N(Cc1ccccc1)C3=O (stereo not drawn),14.5%
20,O=C(O)COc1ccc(S(=O)(=O)c2ccc(OCC(=O)O)cc2)cc1,-5.28%
21,CCc1nc(NC(=O)c2sc(C)nc2C)sc1C(=O)OC,0.758%
22,COc1cc2nc(SCC(=O)N3CC(C)CC(C)C3)n3nc(-c4ccccc4)nc3c2cc1OC (stereo not drawn),-2.29%
23,Cc1ccc(C(=O)C2=C(O)C(=O)N(CCN3CCOCC3)C2c2ccc(N(C)C)cc2)cc1 (stereo not drawn),-3.87%
24,Cc1ccc(C(=O)NCCCn2ccnc2)cc1C,0.658%
25,COc1ccccc1N1CCN(C(=O)c2ccc(Cl)cc2)CC1,-5.57%
26,O=C(CC(c1ccccc1)N1CCOCC1)C1CC1 (stereo not drawn),-5.84%

row,Structure (SMILES),% Inhibition @ 10 uM
1,O=C(O)c1cc(NS(=O)(=O)c2ccc3ccccc3c2)ccc1O,-8.38%
2,CCOc1ccc(N2C(=O)C(C)SC2c2ccnc3ccccc23)cc1 (stereo not drawn),-0.28%
3,CC(NC(=O)c1cccc2c1-c1ccccc1C2=O)c1ccccc1 (stereo not drawn),-4.14%
4,COc1ccc(-c2nc(CSCC(=O)N3CCc4ccccc4C3)c(C)o2)cc1OC,-1.05%
5,COc1cccc(OC)c1C(=O)Nc1ccc(C(C)C)cc1,7.47%
6,COC(=O)c1sccc1NC(=O)CSCCc1ccccn1,-1.46%
7,CN(C)CCCNS(=O)(=O)c1ccc(N2CCC(c3ccc(Cl)cc3)=N2)cc1,1.38%
8,CN(C)CCO/N=C1\CCCc2sccc21,-4.5%
9,Cc1ccc(Oc2nc3ccccc3n3c(C)nnc23)c(C)c1,-3.41%
10,Cc1cccc(C(=O)ON=C2CCSCC2)c1,-1.4%
11,CCCC(C)C(=O)Nc1ccccc1C(N)=O (stereo not drawn),-12.3%
12,N#CCNC(=O)[C@H](CSCc1ccc(Cl)c(Cl)c1)NC(=O)c1ccccc1,-0.214%
13,COCCNC(=O)c1nn(C)c2c1CS(=O)(=O)c1ccccc1-2,-0.205%
14,CSc1ncccc1C(=O)NC1CCCc2ccccc21 (stereo not drawn),3.47%
15,NC(=O)CN1C(C(=O)c2ccccc2)=C(O)c2ccccc2S1(=O)=O,-1.17%
16,Cc1nc2c(-c3ccccc3)c(C)nn2c(C)c1CCC(=O)NCCCc1ccccc1,2.93%
17,COc1cc(OC)cc(C(=O)Nc2ccc3nc(-c4cccc(F)c4)oc3c2)c1,-4.69%
18,CCCc1c(C)nc2ccc(C(=O)OCC)cc2c1Cl,-9.13%
19,COc1cc2c(cc1OC)C(C)N(S(=O)(=O)c1ccc3nc(O)ccc3c1)CC2 (stereo not drawn),3%
20,CCOc1ccc(-c2nc(C#N)c(NCc3ccc(C)cc3)o2)cc1,3.63%
21,Cc1ccccc1OCC(=O)Nc1ccc(NC(=O)COc2ccccc2C)cc1,-1.84%
22,O=C1NC(=O)C(CCc2ccncc2)(c2ccccc2)C(=O)N1,-2.6%
23,COC(=O)\C(=C/C=C/C=C/N(C)C)C(C)=O,11.6%
24,COc1cccc(C(=O)N2CCN(C(=O)C(c3ccccc3)c3ccccc3)CC2)c1,-1.6%

# Reference: paper PMC6919601, “Identification of Plasmodium dipeptidyl aminopeptidase allosteric inhibitors by high throughput screening” (PLoS ONE, 2019)
